In article PMC12136788:
The list shows a part of the results.

T1: UNK ZnF1-3 (human, UniProt Q9C0B0 31-174)
T1 sequence: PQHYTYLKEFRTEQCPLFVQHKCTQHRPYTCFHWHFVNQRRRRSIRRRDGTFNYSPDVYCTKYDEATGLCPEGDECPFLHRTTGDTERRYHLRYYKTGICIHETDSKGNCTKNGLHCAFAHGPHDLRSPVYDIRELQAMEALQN

B1: chr11:72491332:72491333:+_ENSMUSG00000020794_ENSMUST00000021148|perfect_dup|motif|central (ssRNA)
RNA: GGGAGUUCUACAGUCCGACGAUCAGCAUCUACAUUUGCAGGUGAGUCUCCAUUAGGAUCUGCCAGCAUAGAAAUGACACGGAUCAUGAUGGUUUCCACAGUAUGGAUAGGUAACCAGCGUUCCUCUGGCUUCUCAUAACCAUACAACAGAGGAUUGAGCAUCA
B2: chr16:46991118:46991119:-_ENSG00000069345_ENST00000563158|hu_hu|motif|central (ssRNA)
RNA: GGGAGUUCUACAGUCCGACGAUCUCCUCUGUUUCUCCAAUUAUGUUAGGAACUUCCGGUCUAGAUGGCAGAAGAUCUUCGGGUUCAGAAAGCUUGUCUGGGUUGAUCCAGUUGUUUUCAGGAAACUGCACAUCAAACUUUAUGCAACAGAGGAUUGAGCAUCA
B3: chr13:97419175:97419176:-_ENSMUSG00000021670_ENSMUST00000022176|mus_hu|FALSE|FALSE (ssRNA)
RNA: GGGAGUUCUACAGUCCGACGAUCGCUUUACGUACAACAGAAAAGGUAAAUCUUCCACAAUAACAAUGCAGACACAAUCACUAAGAGGCUCUCCAUGCUGCCAUGGUUUCCUGGAAUGUUUUUCAGAGUCCAUCUUCUACAAGACAACAGAGGAUUGAGCAUCA
B4: chr1:29344887:29344888:+_ENSG00000159023_ENST00000356093|perfect_dup|motif|central (ssRNA)
RNA: GGGAGUUCUACAGUCCGACGAUCUUCCAUGACCUUUUCUUCAAGUUCCUUGGUCUGAUUUGGAGCCAGUUUAAAAUCACGGACAUAAUCCAUGCCGUGCAGUUCUGGGUCAUAGUCUCCCAGCUCAGACUGGAUCGUGUAAGACAACAGAGGAUUGAGCAUCA
B5: chr17:13109412:13109413:+_ENSMUSG00000068039_ENSMUST00000151287|mus_mus|motif|central (ssRNA)
RNA: GGGAGUUCUACAGUCCGACGAUCGUGCUGCGGUCCCCGAACACGGACAAAGGACCCUCCAUCUUCAGGAAACGAAGCAAAGCUCACGGCGGCCGCAGACAACCGAUAGCUCCGCUCUGAGACCGUUUAACGGCCACCACGGCGCAACAGAGGAUUGAGCAUCA
B6: chr11:61589858:61589859:-_ENSMUSG00000004798_ENSMUST00000004920|mus_mus|FALSE|FALSE (ssRNA)
RNA: GGGAGUUCUACAGUCCGACGAUCCUAUUUUGAAGAUAAUGCAGUUACAAAUGAGAGGUAGAAACACUGUAGUAAAGACCUAAGAAUACAAACAUCCUAUACAUAAACGUUCAAAUUAACUGCUGGAAUUUCAUACAGAUAAAUCAACAGAGGAUUGAGCAUCA

Molecular target: T1, UNK ZnF1-3
Assay: nsRBNS (natural sequence RNA bind-n-seq); RBNS binding buffer (assumed for nsRBNS): 25 mM Tris pH 7.5, 150 mM KCl, 3 mM MgCl2, 0.01% Triton X-100, 500 ug/ml BSA, 20 U/ml SUPERase-In, 4 C; UNK is unkempt and MSI1 is Musashi-1; names of the RNAs are library labels; protein concentration not given here; high values mean tight binding

Going from B1 to B2, the binding signal falls from 1.16 enrichment R to 0.878 enrichment R.

First: B3
Second: B4
The binding signal of the first is higher: 0.947 enrichment R for the first, 0.636 enrichment R for the second.

First: B5
Second: B6
The binding signal of the first is lower: 0.579 enrichment R for the first, 1.25 enrichment R for the second.
